Measured values as given in the supplement of paper PMC5499739.
Whole data set: some 16,000 sequences, median “Z-score” near -0.37, cut for the highest 2% near 3.2. The list shows a part of the results.

tested on: RBM10 RRM1-ZnF (GST-tagged construct); assay: RNAcompete 7-mer binding Z-score; higher = stronger binding preference
Method: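 RNAcompete: 20 pmol GST-tagged RBM10 RNA-binding constructs were incubated with a designed RNA pool of about 241,000 sequences up to 41 nt (1.5 nmol) on glutathione beads for 30 min at 4 °C and washed. Bound RNAs were identified by microarray hybridisation. Each RNA 7-mer is scored by a one-sided Z-score of its enrichment, computed over probes that contain the 7-mer within longer pool sequences.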

Sequence	RNAcompete 7-mer binding Z-score
UUAGGUU	0.69
GUUUUAU	-0.425
CAAAAAC	-0.772
UUUAUUU	-0.678
CCCAAAC	-0.672
CGCUUGU	-0.769
ACUAAGC	-0.493
AAGCGGG	3.02
GUUAUAC	-0.243
CGAGGUC	-0.0674
GGGCGUC	1.13
UAGUCGG	0.404
CGGACUA	0.0105
CAAGAGC	-0.0479
GGGUGGC	2.89
UUAUAAG	-0.249
CGACAUG	0.192
GGCUUUG	0.0105
CCUACAG	-0.789
GGGAAAU	2.91
CAGCAGC	-0.337
CUUCGCU	-0.906
CGCUCCC	-0.587

Sequence	RNAcompete 7-mer binding Z-score
ACUGGCC	-0.451
GCGACAA	0.199
CCCCGCG	-0.113
GAAGACA	0.316
UCGCAAC	-0.694
AACCGUG	-0.331
GACUUUU	-0.681
CCCUUAU	-0.831
AGUGUUC	-0.448
AGAAAUC	-0.698
GCAUCGU	-0.23
AGUCCUG	-0.561
UGUAGGG	3.6
AUUAAGG	1.2
UGUUGUC	-0.574
GAAUAUG	0.69
CAGAGUC	-0.373
AACUCCU	-0.87
AGGACCA	-0.279
AGUAAUC	-0.389
GCAAGGU	1.94
UUUACCU	-0.935
GACGCGA	-0.314

Sequence	RNAcompete 7-mer binding Z-score
UUUACCC	-0.857
GUUUUCA	-0.483
GACCGCG	-0.678
UAUUUAG	-0.383
UCCUUGC	-0.733
CUCGUAA	-0.779
AUAUUCG	-0.396
UUGGUGU	1.51
UGCUUGC	-0.675
UGACUGC	-0.519
UGCGUAC	-0.0999
ACCGAAG	-0.509
CCGCAGC	-0.467
CUAACUU	-0.834
UUCGCCC	-0.701
CUUCUUG	-0.776
GUCUGGC	-0.249
GAAGUUU	-0.301
GUGCAAU	0.378
GAUUCAU	-0.509
GUCUGUG	-0.0187
UCAGUAG	0.183
GCGUGCA	0.205

Sequence	RNAcompete 7-mer binding Z-score
UGUCGUC	-0.532
ACCUUCU	-0.951
ACUCCCU	-0.753
UAGAGAC	0.153
ACGAGGC	0.319
UUUGUAG	-0.321
ACCAUCA	-0.815
CGUACGA	-0.555
CACGGCU	-0.49
AUGAACU	-0.425
UGGGCAA	1.82
UUUGCAG	-0.405
GGAACCG	0.94
UCCAUAA	-0.88
UAGACAC	-0.363
UUUCCAU	-0.74
AAUAUUU	-0.834
AGCCGGG	0.907
CACAACG	-0.513
GGACCUC	0.069
AGUCGAU	-0.106
GUGUCAA	0.00404
GUUGAGA	0.891

Sequence	RNAcompete 7-mer binding Z-score
CCGGGGC	0.962
CCUAAUU	-0.772
CGGGUCA	1.1
UUCCUUC	-0.782
GUCACGG	0.936
UUCUUCU	-0.756
GAUCCUG	-0.691
AUUCAUG	-0.532
CCUAGGG	0.735
AAGACUA	-0.227
GAAGCAA	0.264
AUAGCAU	-0.379
UAAGGUA	1.5
CGAGUAA	0.144
AGCUGGC	0.16
CUCUACA	-0.831
CUUGCUU	-0.893
CCGGGGA	1.27
AUAAGAA	0.254
AUGAUCA	-0.24
AGGGCCC	-0.35
GCUGGAU	0.586
GAUACCG	-0.402

Sequence	RNAcompete 7-mer binding Z-score
AUGCCUU	-0.831
CCCUAAC	-0.711
GUUCCGG	0.192
ACAUUGU	-0.444
CUGUGUU	-0.854
CAAACCG	-0.633
UAUGUUG	-0.259
CCACAAU	-0.811
GCCCCUA	-0.386
AAUUGCC	-0.626
CGACAUU	-0.506
GAACGCA	-0.142
GUUAAUA	-0.233
UAGAGCC	-0.376
AUGUUCG	-0.399
GCCUGCG	-0.383
CGAUGCC	-0.542
GAACAGC	-0.253
UACGAAA	-0.0739
CGCCAGC	-0.165
CCAGGGG	1.46
UCGCUUA	-0.545
AGGCACG	0.209

Sequence	RNAcompete 7-mer binding Z-score
GCCGACU	-0.75
CCCUGAU	-0.457
CUGCCGG	0.00404
GCGAUAA	0.235
CUGCGGC	0.0138
GUGAAUG	1.17
UGUGUGC	-0.035
CCACGUC	-0.513
ACAUGGA	1.7
CGGAGGG	2.91
AGAACUC	-0.759
CCGGAUU	-0.441
CGCUCCA	-0.5
AUCGGUA	0.404
CGGGCAG	1.88
GUUAUUG	0.329
UCGCGAU	-0.701
UGACCGC	-0.438
CUACCGG	-0.542
ACACUGC	-0.61
AAAGAUA	0.0333
ACACGGG	1.81
GUAGGGC	2.49

Sequence	RNAcompete 7-mer binding Z-score
GCAUCGG	0.306
UUCGGCA	-0.529
CUACCCA	-0.818
GACGCUC	-0.681
CCGUGGG	1.88
AAGGGAC	3.18
CGUGCUU	-0.61
UAACUUA	-0.376
GGACGGG	4.52
GUGGGUG	4.14
ACUUCGG	-0.191
GUCCAAC	-0.672
UCCUCCG	-0.613
GAUGUCA	-0.178
GCACUGA	-0.0447
UGGGUGC	2.92
CGGGACC	0.582
CGUUUCC	-0.792
UGACAAC	-0.223
GUUCAUG	-0.279
CGGUUGA	1.01
AUUCCGG	-0.555
